Assay results reported in PubChem BioAssay AID588855 (National Center for Advancing Translational Sciences (NCATS), 2011).
Out of some 410,000 compounds screened, about 5,000 (1.2%) were called active. Inconclusive results, whose numbers are uncertain, are shown with a selection of clear calls. The call rests on the fitted dose curve; in most records, active means well fitted inhibition curve with a large enough effect; inconclusive means small, poorly fitted or top-dose-only effect; inactive means no such curve, though single readings can be large or run the other way. Where the call is inconclusive, the potency comes from a doubtful curve fit.

experiment: qHTS for Inhibitors of TGF-b; conditions: HepG2 CAGA-GFP TGF-b/SMAD3 reporter, GFP fluorescence, 18 h, TGF-beta stimulated, 500 pg/mL final; series mostly up to 46.1 µM; activity, negative = inhibition: at the top concentration; further: nearly all actives have a fitted effect of over 65% in size
Description: TGF-b is a main component in the TGF-b signaling pathway which plays diverse roles in cellular and development pathways. TGF-b is the mediated by the transcription factors Smads. Although the Smad-dependent pathway is the primary canonical TGF-b signaling node, TGF-b1 can also activate alternative signaling pathways, including those involving MAPK (ERK, JNK and p38). This interaction may mediate or enhance Smad-dependent responses, or can exert Smad-independent effects. The complexity of this signaling cascade allows the TGF-b superfamily to perform unique, overlapping or redundant functions. We believe that targeting the TGF-beta pathway at the Smad-transcription factor level may eliminate the consequences of disrupting the entire pathway and offer specificity without affecting other signaling pathways. Smad3 is the primary transducer of TGF-b's signals and Smad3 regulates many functions attributed to TGF-b signaling. We hypothesize that Smad3 inhibitors will selectively eliminate Smad3-specific TGF-beta signals without undesired off-target effects. We aim to identify Smad3-small molecule antagonists using a quantitative high throughput screening (qHTS) approach.
A high-throughput assay was developed to screen the NIH Molecular Libraries Small Molecule Repository (MLSMR). This is a cell based assay, where TGF-b is tagged with GFP. A counterscreen is run that looks at cytotoxicity (please see summary AID).
MH087449NIH Chemical Genomics Center [NCGC]
NIH Molecular Libraries Probe Centers Network [MLPCN]
Assay Submitter (PI): Sushil Rane, National Institute of […]
Suspensions of trypsinized HEPG2 CAGA-GFP cells were dispensed into white, tissue culture-treated, solid 1536-well plates at 5uL/well (1000 cells/well final concentration) in DMEM medium supplemented with 1% FBS. Plates were incubated at 37 degrees C for 2 hours, after which 23 nL of compounds or DMSO were delivered to each well using a pin tool. One uL of recombinant TGF-beta in DMEM (1% FBS) was then dispensed (500 pg/mL final concentration), and plates were incubated at 37 degrees C for 18 hours. The plates were measured on an Acumen eX3 Explorer plate reader for GFP fluorescence (ex488/em500-530). GFP values were calculated by determining the mean GFP fluorescence of individual cells, and compiling these values for each well to determine a total well GFP signal. The %Activity was determined from the corrected fluorescence values. A titration of the known TGF-B inhibitor SB431542 was included to monitor plate performance, while unstimulated HEPG2 (-TGF-B) control wells were used to normalize %Activity of identified inhibitors; unstimulated wells corresponded to 100%Activity (full inhibition), while stimulated cell controls (+DMSO) were used to normalize 0%Activity (no inhibition).
Concentration-response curves were fitted to the signals arising from the resulting fluorescence. The concentration-effect curves were then classified based on curve quality (r2), response magnitude and degree of measured activity, and compounds were subsequently categorized based on their curve class.
Potency means the concentration at half of the fitted maximal effect; tags describe the fitted curve by direction and shape.

SMILES	Potency	activity, negative = inhibition
O=Cc1cn(Cc2ccc(F)cc2)c2ccccc12	active: 0.708 µM	–
COC(=O)c1cn(Cc2ccc(F)cc2)c2ccccc12	–	inactive: 7.86%
Nc1cnn(-c2ccccc2)c(=O)c1Cl	–	inactive: -1.06%
Clc1ccc(CSc2nnc(-c3ccccn3)n2Cc2ccco2)cc1Cl	inconclusive: 35.5 µM [inhibitor, single point]	–
CN1C(=O)N(C)C(=O)C(NS(=O)(=O)c2ccc(N)cc2)(c2ccccc2)C1=O	–	inactive: -3.81%
Cc1nc2ccccc2c(=O)n1-c1ccc(F)cc1F	–	inactive: 36.7%
COc1ccccc1N1CCN(S(=O)(=O)c2ccc3c(c2)oc(=O)n3C)CC1	inconclusive: 35.5 µM [inhibitor, single point]	–
O=C(O)C1C2CCC(O2)C1C(=O)Nc1cccc(Br)c1 (stereo not given)	–	inactive: 2.34%
O=C1CC(N2CCC(n3c(=O)[nH]c4ccccc43)CC2)C(=O)N1Cc1ccccc1 (stereo not given)	–	inactive: 7.59%
N#CC12c3ccccc3C(=O)N1Cc1cnnn1-c1ccccc12 (stereo not given)	inconclusive: 22.4 µM [inhibitor, single point]	–
CSCCC(c1nnnn1-c1ccc2c(c1)OCCO2)N1CCC2(CC1)C(=O)NCN2c1ccccc1 (stereo not given)	inconclusive: 25.1 µM [inhibitor, single point]	–
O=C(CSc1ccc(Cl)cc1)NC1=NN(c2ccccc2)C(=O)C1	inconclusive: 10 µM [inhibitor, partial curve, poor fit]	–
Cc1oc(-c2ccc(Cl)cc2)nc1CN1C(=O)CN=C(c2ccccc2)c2ccccc21	active: 20 µM	–
CCOC(=O)C(O)(c1ccc(NC(=S)NC(=O)c2ccc(Cl)cc2Cl)c(C)c1)C(F)(F)F (stereo not given)	inconclusive: 17.8 µM [inhibitor, partial curve, poor fit]	–
O=C(c1ccccc1Cl)N1CCC(c2nc3ccccc3s2)CC1	inconclusive: 35.5 µM [inhibitor, single point]	–
CCCCn1c(O)c(C(C)=NCCN2CCOCC2)c(=O)[nH]c1=O	inconclusive: 35.5 µM [inhibitor, single point]	–
Cc1ccc(NC(=O)COc2ccc(-c3nn(C)c(=O)c4ccccc34)cc2)cc1	inconclusive: 12.6 µM [inhibitor, partial curve, poor fit]	–
CCOC(=O)c1cccc(NS(=O)(=O)c2ccc(NC(C)=O)cc2)c1	inconclusive: 0.0891 µM [inhibitor, full curve, poor fit]	–
COc1ccc(CCNC(=O)c2ccc3c(c2)N=C(C)c2cc(C)ccc2S3)cc1OC	inconclusive: 11.2 µM [inhibitor, partial curve, poor fit]	–
O=C(Cn1c(=O)oc2cc(S(=O)(=O)N3CCCCCC3)ccc21)NCc1ccccc1Cl	inconclusive: 35.5 µM [inhibitor, single point]	–
